± gives the standard deviation of the averaged measurements. Laboratory Escherichia coli strains with one amino-acid change in an essential protein, pooled on minimal glucose agar with carbenicillin or gentamicin at twice the control MIC (plus kanamycin and chloramphenicol for the plasmids), 48 h. Fold change of barcode share against drug-free plates; higher = less susceptible. Active = above 20 in both replicates (the paper's putatively resistant). '<' = one read or none on drug, '>' = one read or none on a drug-free plate. Shares are relative, so most strains fall below 1 when a few take over. Listed are strains with at least 15 reads on both drug-free plates, and hits; most hits rest on fewer reference reads. Replicate rank correlation about 0.5. Edits are read from barcodes.
B1: mreC V123Q (protein)
chain: MKPIFSRGPSLQIRLILAVLVALGIIIADSRLGTFSQIRTYMDTAVSPFYFVSNAPRELLDGVSQTLASRDQLELENRALRQELLLKNSELLMLGQYKQENARLRELLGSPLRQDEQKMVTQQISTVNDPYSDQVVIDKGSVNGVYEGQPVISDKGVVGQVVAVAKLTSRVLLICDATHALPIQVLRNDIRVIAAGNGCTDDLQLEHLPANTDIRVGDVLVTSGLGGRFPEGYPVAVVSSVKLDTQRAYTVIQARPTAGLQRLRYLLLLWGADRNGANPMTPEEVHRVANERLMQMMPQVLPSPDAMGPKLPEPATGIAQPTPQQPATGNAATAPAAPTQPAANRSPQRATPPQSGAQPPARAPGGQ
B2: mreC I124A (protein)
chain: MKPIFSRGPSLQIRLILAVLVALGIIIADSRLGTFSQIRTYMDTAVSPFYFVSNAPRELLDGVSQTLASRDQLELENRALRQELLLKNSELLMLGQYKQENARLRELLGSPLRQDEQKMVTQVASTVNDPYSDQVVIDKGSVNGVYEGQPVISDKGVVGQVVAVAKLTSRVLLICDATHALPIQVLRNDIRVIAAGNGCTDDLQLEHLPANTDIRVGDVLVTSGLGGRFPEGYPVAVVSSVKLDTQRAYTVIQARPTAGLQRLRYLLLLWGADRNGANPMTPEEVHRVANERLMQMMPQVLPSPDAMGPKLPEPATGIAQPTPQQPATGNAATAPAAPTQPAANRSPQRATPPQSGAQPPARAPGGQ
B3: mreC I124W (protein)
chain: MKPIFSRGPSLQIRLILAVLVALGIIIADSRLGTFSQIRTYMDTAVSPFYFVSNAPRELLDGVSQTLASRDQLELENRALRQELLLKNSELLMLGQYKQENARLRELLGSPLRQDEQKMVTQVWSTVNDPYSDQVVIDKGSVNGVYEGQPVISDKGVVGQVVAVAKLTSRVLLICDATHALPIQVLRNDIRVIAAGNGCTDDLQLEHLPANTDIRVGDVLVTSGLGGRFPEGYPVAVVSSVKLDTQRAYTVIQARPTAGLQRLRYLLLLWGADRNGANPMTPEEVHRVANERLMQMMPQVLPSPDAMGPKLPEPATGIAQPTPQQPATGNAATAPAAPTQPAANRSPQRATPPQSGAQPPARAPGGQ
B4: mreC V162A (protein)
chain: MKPIFSRGPSLQIRLILAVLVALGIIIADSRLGTFSQIRTYMDTAVSPFYFVSNAPRELLDGVSQTLASRDQLELENRALRQELLLKNSELLMLGQYKQENARLRELLGSPLRQDEQKMVTQVISTVNDPYSDQVVIDKGSVNGVYEGQPVISDKGVVGQVAAVAKLTSRVLLICDATHALPIQVLRNDIRVIAAGNGCTDDLQLEHLPANTDIRVGDVLVTSGLGGRFPEGYPVAVVSSVKLDTQRAYTVIQARPTAGLQRLRYLLLLWGADRNGANPMTPEEVHRVANERLMQMMPQVLPSPDAMGPKLPEPATGIAQPTPQQPATGNAATAPAAPTQPAANRSPQRATPPQSGAQPPARAPGGQ
B5: mreC V162W (protein)
chain: MKPIFSRGPSLQIRLILAVLVALGIIIADSRLGTFSQIRTYMDTAVSPFYFVSNAPRELLDGVSQTLASRDQLELENRALRQELLLKNSELLMLGQYKQENARLRELLGSPLRQDEQKMVTQVISTVNDPYSDQVVIDKGSVNGVYEGQPVISDKGVVGQVWAVAKLTSRVLLICDATHALPIQVLRNDIRVIAAGNGCTDDLQLEHLPANTDIRVGDVLVTSGLGGRFPEGYPVAVVSSVKLDTQRAYTVIQARPTAGLQRLRYLLLLWGADRNGANPMTPEEVHRVANERLMQMMPQVLPSPDAMGPKLPEPATGIAQPTPQQPATGNAATAPAAPTQPAANRSPQRATPPQSGAQPPARAPGGQ
B6: mreC V162Q (protein)
chain: MKPIFSRGPSLQIRLILAVLVALGIIIADSRLGTFSQIRTYMDTAVSPFYFVSNAPRELLDGVSQTLASRDQLELENRALRQELLLKNSELLMLGQYKQENARLRELLGSPLRQDEQKMVTQVISTVNDPYSDQVVIDKGSVNGVYEGQPVISDKGVVGQVQAVAKLTSRVLLICDATHALPIQVLRNDIRVIAAGNGCTDDLQLEHLPANTDIRVGDVLVTSGLGGRFPEGYPVAVVSSVKLDTQRAYTVIQARPTAGLQRLRYLLLLWGADRNGANPMTPEEVHRVANERLMQMMPQVLPSPDAMGPKLPEPATGIAQPTPQQPATGNAATAPAAPTQPAANRSPQRATPPQSGAQPPARAPGGQ
B7: mreC V162D (protein)
chain: MKPIFSRGPSLQIRLILAVLVALGIIIADSRLGTFSQIRTYMDTAVSPFYFVSNAPRELLDGVSQTLASRDQLELENRALRQELLLKNSELLMLGQYKQENARLRELLGSPLRQDEQKMVTQVISTVNDPYSDQVVIDKGSVNGVYEGQPVISDKGVVGQVDAVAKLTSRVLLICDATHALPIQVLRNDIRVIAAGNGCTDDLQLEHLPANTDIRVGDVLVTSGLGGRFPEGYPVAVVSSVKLDTQRAYTVIQARPTAGLQRLRYLLLLWGADRNGANPMTPEEVHRVANERLMQMMPQVLPSPDAMGPKLPEPATGIAQPTPQQPATGNAATAPAAPTQPAANRSPQRATPPQSGAQPPARAPGGQ
B8: asd L176W (protein)
chain: MKNVGFIGWRGMVGSVLMQRMVEERDFDAIRPVFFSTSQLGQAAPSFGGTTGTLQDAFDLEALKALDIIVTCQGGDYTNEIYPKLRESGWQGYWIDAASSLRMKDDAIIILDPVNQDVITDGLNNGIRTFVGGNCTVSLMLMSLGGLFANDLVDWVSVATYQAASGGGARHMRELWTQMGHLYGHVADELATPSSAILDIERKVTTLTRSGELPVDNFGVPLAGSLIPWIDKQLDNGQSREEWKGQAETNKILNTSSVIPVDGLCVRVGALRCHSQAFTIKLKKDVSIPTVEELLAAHNPWAKVVPNDREITMRELTPAAVTGTLTTPVGRLRKLNMGPEFLSAFTVGDQLLWGAAEPLRRMLRQLA
B9: msbA L16Q (protein)
chain: MHNDKDLSTWQTFRRQWPTIAPFKAGLIVAGVALILNAASDTFMLSLLKPLLDDGFGKTDRSVLVWMPLVVIGLMILRGITSYVSSYCISWVSGKVVMTMRRRLFGHMMGMPVSFFDKQSTGTLLSRITYDSEQVASSSSGALITVVREGASIIGLFIMMFYYSWQLSIILIVLAPIVSIAIRVVSKRFRNISKNMQNTMGQVTTSAEQMLKGHKEVLIFGGQEVETKRFDKVSNRMRLQGMKMVSASSISDPIIQLIASLALAFVLYAASFPSVMDSLTAGTITVVFSSMIALMRPLKSLTNVNAQFQRGMAACQTLFTILDSEQEKDEGKRVIERATGDVEFRNVTFTYPGRDVPALRNINLKIPAGKTVALVGRSGSGKSTIASLITRFYDIDEGEILMDGHDLREYTLASLRNQVALVSQNVHLFNDTVANNIAYARTEQYSREQIEEAARMAYAMDFINKMDNGLDTVIGENGVLLSGGQRQRIAIARALLRDSPILILDEATSALDTESERAIQAALDELQKNRTSLVIAHRLSTIEKADEIVVVEDGVIVERGTHNDLLEHRGVYAQLHKMQFGQ
B10: msbA I28A (protein)
chain: MHNDKDLSTWQTFRRLWPTIAPFKAGLAVAGVALILNAASDTFMLSLLKPLLDDGFGKTDRSVLVWMPLVVIGLMILRGITSYVSSYCISWVSGKVVMTMRRRLFGHMMGMPVSFFDKQSTGTLLSRITYDSEQVASSSSGALITVVREGASIIGLFIMMFYYSWQLSIILIVLAPIVSIAIRVVSKRFRNISKNMQNTMGQVTTSAEQMLKGHKEVLIFGGQEVETKRFDKVSNRMRLQGMKMVSASSISDPIIQLIASLALAFVLYAASFPSVMDSLTAGTITVVFSSMIALMRPLKSLTNVNAQFQRGMAACQTLFTILDSEQEKDEGKRVIERATGDVEFRNVTFTYPGRDVPALRNINLKIPAGKTVALVGRSGSGKSTIASLITRFYDIDEGEILMDGHDLREYTLASLRNQVALVSQNVHLFNDTVANNIAYARTEQYSREQIEEAARMAYAMDFINKMDNGLDTVIGENGVLLSGGQRQRIAIARALLRDSPILILDEATSALDTESERAIQAALDELQKNRTSLVIAHRLSTIEKADEIVVVEDGVIVERGTHNDLLEHRGVYAQLHKMQFGQ
B11: msbA I28W (protein)
chain: MHNDKDLSTWQTFRRLWPTIAPFKAGLWVAGVALILNAASDTFMLSLLKPLLDDGFGKTDRSVLVWMPLVVIGLMILRGITSYVSSYCISWVSGKVVMTMRRRLFGHMMGMPVSFFDKQSTGTLLSRITYDSEQVASSSSGALITVVREGASIIGLFIMMFYYSWQLSIILIVLAPIVSIAIRVVSKRFRNISKNMQNTMGQVTTSAEQMLKGHKEVLIFGGQEVETKRFDKVSNRMRLQGMKMVSASSISDPIIQLIASLALAFVLYAASFPSVMDSLTAGTITVVFSSMIALMRPLKSLTNVNAQFQRGMAACQTLFTILDSEQEKDEGKRVIERATGDVEFRNVTFTYPGRDVPALRNINLKIPAGKTVALVGRSGSGKSTIASLITRFYDIDEGEILMDGHDLREYTLASLRNQVALVSQNVHLFNDTVANNIAYARTEQYSREQIEEAARMAYAMDFINKMDNGLDTVIGENGVLLSGGQRQRIAIARALLRDSPILILDEATSALDTESERAIQAALDELQKNRTSLVIAHRLSTIEKADEIVVVEDGVIVERGTHNDLLEHRGVYAQLHKMQFGQ
B12: msbA I28Q (protein)
chain: MHNDKDLSTWQTFRRLWPTIAPFKAGLQVAGVALILNAASDTFMLSLLKPLLDDGFGKTDRSVLVWMPLVVIGLMILRGITSYVSSYCISWVSGKVVMTMRRRLFGHMMGMPVSFFDKQSTGTLLSRITYDSEQVASSSSGALITVVREGASIIGLFIMMFYYSWQLSIILIVLAPIVSIAIRVVSKRFRNISKNMQNTMGQVTTSAEQMLKGHKEVLIFGGQEVETKRFDKVSNRMRLQGMKMVSASSISDPIIQLIASLALAFVLYAASFPSVMDSLTAGTITVVFSSMIALMRPLKSLTNVNAQFQRGMAACQTLFTILDSEQEKDEGKRVIERATGDVEFRNVTFTYPGRDVPALRNINLKIPAGKTVALVGRSGSGKSTIASLITRFYDIDEGEILMDGHDLREYTLASLRNQVALVSQNVHLFNDTVANNIAYARTEQYSREQIEEAARMAYAMDFINKMDNGLDTVIGENGVLLSGGQRQRIAIARALLRDSPILILDEATSALDTESERAIQAALDELQKNRTSLVIAHRLSTIEKADEIVVVEDGVIVERGTHNDLLEHRGVYAQLHKMQFGQ

Molecular target: Escherichia coli (laboratory strain)
Assay: barcode share on antibiotic plates over drug-free plates; higher = less susceptible
Protocol: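 A pool of E. coli strains, each edited to carry one amino-acid change in an essential protein, was grown for 48 h on minimal glucose agar with or without antibiotic; strain barcodes were sequenced; mean of two replicates.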

[1] = antibiotic: carbenicillin, 2× MIC (3.1 µg/mL)
[2] = antibiotic: gentamicin, 2× MIC (MIC 0.45 µg/mL)

Row | Protein | fold change of barcode share [1] | fold change of barcode share [2]
1 | B1 | 0.247 ± 0.094 | < 0.0121
2 | B2 | 0.357 ± 0.13 | < 0.0157
3 | B3 | 0.186 ± 0.021 | < 0.0104
4 | B4 | 0.21 ± 0.058 | 0.00421 ± 0.0032
5 | B5 | 0.315 ± 0.15 | 0.00623 ± 0.0019
6 | B6 | 0.431 ± 0.099 | 0.0037 ± 0.0013
7 | B7 | 0.213 ± 0.011 | 0.00436 ± 0.00056
8 | B8 | 0.461 ± 0.059 | 0.014 ± 0.013
9 | B9 | 0.286 ± 0.088 | 
10 | B10 | 0.271 ± 0.034 | 0.0135 ± 0.001
11 | B11 | 0.256 ± 0.082 | 0.0248 ± 0.01
12 | B12 | 0.243 ± 0.05 | 0.00978 ± 0.0048

Source: the supplement of paper PMC11876631
